Publication PMC4336329 (PLoS ONE, 2015)
The campaign covered roughly 310,000 compounds. About 2,200 (0.71%) showed an effect of 50% or more. The effect is printed as a negative number. Some of the results follow.

Molecular target: human ether-à-go-go-related gene (hERG) potassium channel (human, UniProt Q12809)
Experiment: primary screen, population patch clamp on CHO cells stably expressing hERG

Chain of human ether-à-go-go-related gene (hERG) potassium channel (Q12809 whole entry, looked up): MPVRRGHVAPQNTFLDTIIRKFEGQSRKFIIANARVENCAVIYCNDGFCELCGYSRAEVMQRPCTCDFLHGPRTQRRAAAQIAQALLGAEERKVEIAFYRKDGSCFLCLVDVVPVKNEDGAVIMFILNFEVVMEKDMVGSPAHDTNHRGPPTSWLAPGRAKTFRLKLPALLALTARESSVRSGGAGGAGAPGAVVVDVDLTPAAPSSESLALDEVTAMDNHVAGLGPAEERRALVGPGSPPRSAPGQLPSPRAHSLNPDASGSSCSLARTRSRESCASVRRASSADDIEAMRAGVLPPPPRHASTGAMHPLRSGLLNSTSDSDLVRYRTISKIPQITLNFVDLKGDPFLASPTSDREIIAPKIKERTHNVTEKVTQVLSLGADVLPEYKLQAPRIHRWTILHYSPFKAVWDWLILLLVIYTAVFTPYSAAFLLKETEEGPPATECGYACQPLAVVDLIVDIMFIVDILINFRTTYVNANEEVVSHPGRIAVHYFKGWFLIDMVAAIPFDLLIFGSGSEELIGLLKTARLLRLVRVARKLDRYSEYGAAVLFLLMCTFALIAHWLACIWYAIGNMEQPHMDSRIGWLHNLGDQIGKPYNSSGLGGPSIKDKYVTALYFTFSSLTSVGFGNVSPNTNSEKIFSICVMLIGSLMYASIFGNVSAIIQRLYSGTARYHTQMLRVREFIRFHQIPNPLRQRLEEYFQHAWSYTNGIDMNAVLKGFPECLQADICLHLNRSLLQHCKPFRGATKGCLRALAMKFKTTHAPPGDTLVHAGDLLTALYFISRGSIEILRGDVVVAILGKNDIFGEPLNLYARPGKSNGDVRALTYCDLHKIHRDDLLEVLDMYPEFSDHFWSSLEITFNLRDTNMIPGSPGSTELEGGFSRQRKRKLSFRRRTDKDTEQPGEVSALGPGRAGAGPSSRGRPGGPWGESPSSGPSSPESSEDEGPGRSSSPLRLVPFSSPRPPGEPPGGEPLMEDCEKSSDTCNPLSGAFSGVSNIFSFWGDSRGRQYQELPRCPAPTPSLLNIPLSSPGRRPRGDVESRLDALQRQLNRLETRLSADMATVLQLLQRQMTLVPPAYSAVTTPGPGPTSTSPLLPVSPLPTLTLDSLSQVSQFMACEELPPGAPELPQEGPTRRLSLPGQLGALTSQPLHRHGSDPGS

Compound	hERG current change (%, negative = inhibition) at 1uM
Cc1cccn2c(=O)c3cc(S(=O)(=O)c4ccccc4)c(=N)n(Cc4ccc(F)cc4)c3nc12	24.7%
C/C(=N\Nc1ncc(Br)cn1)c1cccc([N+](=O)[O-])c1	10.2%
O=C(CN1C(=O)NC2(CCOc3ccccc32)C1=O)c1ccc(Cl)s1 (centres unmarked)	8.7%
COC(=O)CCCC1=CC2=CC(=O)C(C)(OC(=O)c3cccs3)C(=O)C2=CN1c1ccc(OC)cc1 (centres unmarked)	2.28%
Cc1ccc(C)c(N2CCN(S(=O)(=O)c3ccc4c(c3)oc(=O)n4C)CC2)c1	14%
Cc1ccc(S(=O)(=O)N(CC#N)CC#N)cc1	8.18%
COc1cccc(S(=O)(=O)NCc2ccc(C(=O)N3CCN(c4ccccc4)CC3)cc2)c1	1.61%
O=C(NC1CCS(=O)(=O)C1)/C(=C\c1ccc(F)cc1)NC(=O)c1ccccc1 (centres unmarked)	-3.97%
CN(Cc1ccno1)C(=O)CC1C(=O)NCCN1CC(c1ccccc1)c1ccccc1 (centres unmarked)	11.9%
CCOc1ccc(CNC(=O)c2nnc(CS(=O)(=O)c3ccccc3)o2)cc1OC	13.6%
Cc1ccc2c(c1)C=CC(C#N)N2C(=O)c1ccccc1 (centres unmarked)	18.8%
CCOc1ccccc1NC(=S)N1CCCc2ccccc21	8.14%
COc1ccccc1C(=O)Nc1ccccc1C(=O)NCc1ccco1	9.88%
Cc1ccc(N2CN(Cc3ccco3)CNC2=S)cc1	16.5%
Cn1cnnc1SCC(=O)Nc1cccc(S(=O)(=O)N2CCOCC2)c1	2.03%
O=C(CCN1C(=O)c2ccccc2S1(=O)=O)Nc1ccc(C(=O)O)cc1	8.13%
CCCCN(C(=O)c1oc2ccc(OCC)cc2c1C)c1c(N)n(CC(C)C)c(=O)[nH]c1=O	11.4%
COc1ccc(-c2ccc(-c3noc(-c4cccc(OC)c4)n3)c(OC)n2)cc1	19.7%
CCN(Cc1ccccc1)C(=O)Cn1cc(S(=O)(=O)NC)c(S(=O)(=O)NC)c1	14.4%
O=C(Nc1ccc(Cl)cc1)c1ccc(Br)cc1F	16%
Cc1ccc(CNC(=O)CCCC(=O)O)cc1	4.97%
CC(=O)Nc1ccc(S(=O)(=O)N2CCN(C(C)CCc3ccccc3)CC2)cc1 (centres unmarked)	-5.65%
CCOc1c2ccc(C(=O)NCc3ccc4c(c3)OCO4)cc2nn1CCOC	5.72%
